# According to patent publication US20200237717A1, “Treatment of Staphylococcal and Enterococcal Infections Using Substituted Nitrostyrene Compounds” (Opal Biosciences Limited, priority 2017, published 2020):
# System: MRSA isolate Sa057 (VSSA)
# Assay: microbe, parasite or virus in culture
# Format: cell-based, Staphylococcus aureus
# Details: for MIC: Staphylococcus aureus, MRSA
smiles,measurement,setting,value
"C/C(=C\c1ccc2c(c1)OCO2)[N+](=O)[O-] [BDM-I, 3,4-methylenedioxy-β-methyl-β-nitrostyrene]",BDM-I MIC increase,"Sa057, day 110 vs start, 6 out of 21 colonies",1.5 µg/mL
same,MIC,"read-out: BDM-I MIC, Sa057 before passage in BDM-I",3.5 µg/mL
same,MIC,"read-out: BDM-I MIC, Sa057 day 110 colonies, only 6 out of 21 colonies displayed the increase",5 µg/mL

# Read-outs that look alike come from different tables or passages of the source.
